No constants are given. Whether binding was seen depends on the method and setting. In cells and extracts the contact can be indirect. Some binding calls cover weakened binding; strength is not graded here.

Protein sequences, listed by entry. Tags and fused reporters are not part of them.
UniProt P08238: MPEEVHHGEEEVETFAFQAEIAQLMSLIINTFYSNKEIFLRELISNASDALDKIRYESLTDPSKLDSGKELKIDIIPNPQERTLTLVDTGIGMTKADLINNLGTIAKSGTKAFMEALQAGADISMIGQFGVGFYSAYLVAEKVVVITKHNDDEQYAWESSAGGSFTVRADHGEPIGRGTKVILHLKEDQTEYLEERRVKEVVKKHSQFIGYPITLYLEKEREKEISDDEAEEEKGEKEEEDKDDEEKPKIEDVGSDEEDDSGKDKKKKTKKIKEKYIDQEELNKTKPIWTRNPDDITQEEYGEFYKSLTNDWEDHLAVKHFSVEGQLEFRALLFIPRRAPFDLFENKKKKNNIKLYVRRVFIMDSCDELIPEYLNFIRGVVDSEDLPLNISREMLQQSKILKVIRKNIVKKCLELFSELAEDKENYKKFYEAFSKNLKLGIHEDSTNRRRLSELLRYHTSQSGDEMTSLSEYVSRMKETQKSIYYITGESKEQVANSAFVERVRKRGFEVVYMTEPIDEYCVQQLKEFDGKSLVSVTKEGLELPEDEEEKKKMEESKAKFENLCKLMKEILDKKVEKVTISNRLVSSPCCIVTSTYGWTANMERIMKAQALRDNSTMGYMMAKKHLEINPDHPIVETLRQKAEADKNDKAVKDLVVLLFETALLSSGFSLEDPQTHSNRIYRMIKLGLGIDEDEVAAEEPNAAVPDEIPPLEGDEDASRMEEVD
UniProt P0DMV8: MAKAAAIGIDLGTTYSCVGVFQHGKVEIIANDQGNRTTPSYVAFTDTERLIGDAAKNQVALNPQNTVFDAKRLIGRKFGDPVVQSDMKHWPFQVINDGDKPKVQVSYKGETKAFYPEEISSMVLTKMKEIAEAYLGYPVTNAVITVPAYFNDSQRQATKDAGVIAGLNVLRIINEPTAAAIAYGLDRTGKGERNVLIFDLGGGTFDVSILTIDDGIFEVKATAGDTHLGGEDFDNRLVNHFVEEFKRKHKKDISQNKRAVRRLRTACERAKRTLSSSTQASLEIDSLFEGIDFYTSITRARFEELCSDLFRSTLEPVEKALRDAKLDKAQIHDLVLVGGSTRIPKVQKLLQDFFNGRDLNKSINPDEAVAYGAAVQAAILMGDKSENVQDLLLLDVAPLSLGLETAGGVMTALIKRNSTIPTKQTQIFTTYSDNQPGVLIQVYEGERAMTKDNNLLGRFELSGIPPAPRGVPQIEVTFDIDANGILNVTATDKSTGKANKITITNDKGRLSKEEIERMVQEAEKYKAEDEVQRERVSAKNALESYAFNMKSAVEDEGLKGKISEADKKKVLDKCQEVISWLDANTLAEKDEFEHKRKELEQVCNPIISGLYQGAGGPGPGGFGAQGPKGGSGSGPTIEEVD

Assay [1] has as its target T1, N-terminal portion of Gsdma3 (A.A. 1-227) (mouse) (UniProt Q5Y4Y6).
T1 sequence: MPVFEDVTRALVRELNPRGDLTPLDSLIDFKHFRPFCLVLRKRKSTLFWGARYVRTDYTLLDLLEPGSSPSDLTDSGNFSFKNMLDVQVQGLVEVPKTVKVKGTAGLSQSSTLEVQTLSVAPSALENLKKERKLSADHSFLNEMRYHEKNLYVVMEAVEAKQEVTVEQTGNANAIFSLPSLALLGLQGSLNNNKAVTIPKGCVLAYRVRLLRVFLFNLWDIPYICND
The assay can be described thus: co-IP; HEK293T cells transfected with Gsdma3 constructs; co-immunoprecipitation with endogenous chaperones or Tom70, in part reciprocal; in part in the absence or presence of 750 nM radicicol; in part with co-expressed C-Gsdma3.

Assay [2] concerns the target T2, Gasdermin A3 Rim3-type mutant (A348T), full length (mouse) (UniProt Q5Y4Y6).
T2 sequence: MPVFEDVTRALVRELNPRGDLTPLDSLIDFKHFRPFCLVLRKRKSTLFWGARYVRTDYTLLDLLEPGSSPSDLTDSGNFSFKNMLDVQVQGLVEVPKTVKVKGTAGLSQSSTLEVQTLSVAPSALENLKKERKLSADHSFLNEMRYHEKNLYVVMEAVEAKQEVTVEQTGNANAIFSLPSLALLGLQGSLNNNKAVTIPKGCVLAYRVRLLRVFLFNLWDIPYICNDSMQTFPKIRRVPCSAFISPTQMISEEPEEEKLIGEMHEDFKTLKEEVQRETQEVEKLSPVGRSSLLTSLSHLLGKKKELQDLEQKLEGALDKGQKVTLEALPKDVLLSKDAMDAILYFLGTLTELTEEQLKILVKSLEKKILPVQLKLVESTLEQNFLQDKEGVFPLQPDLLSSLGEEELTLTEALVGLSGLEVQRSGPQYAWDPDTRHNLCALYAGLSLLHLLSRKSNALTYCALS
The description is as above.

In assay [3] the target is T1, N-terminal portion of Gsdma3 (A.A. 1-227) (mouse). Kind of assay: co-IP; HEK293T cells co-transfected with differently tagged Gsdma3 constructs; whole cell lysates split in half, immunoprecipitated and immunoblotted with tag antibodies (V5, myc, flag). (Immunoblotting shows a protein as a band on a membrane.)
For assay [4], the target named is T3, Gasdermin A3, wild type, full length (mouse) (UniProt Q5Y4Y6).
T3 sequence: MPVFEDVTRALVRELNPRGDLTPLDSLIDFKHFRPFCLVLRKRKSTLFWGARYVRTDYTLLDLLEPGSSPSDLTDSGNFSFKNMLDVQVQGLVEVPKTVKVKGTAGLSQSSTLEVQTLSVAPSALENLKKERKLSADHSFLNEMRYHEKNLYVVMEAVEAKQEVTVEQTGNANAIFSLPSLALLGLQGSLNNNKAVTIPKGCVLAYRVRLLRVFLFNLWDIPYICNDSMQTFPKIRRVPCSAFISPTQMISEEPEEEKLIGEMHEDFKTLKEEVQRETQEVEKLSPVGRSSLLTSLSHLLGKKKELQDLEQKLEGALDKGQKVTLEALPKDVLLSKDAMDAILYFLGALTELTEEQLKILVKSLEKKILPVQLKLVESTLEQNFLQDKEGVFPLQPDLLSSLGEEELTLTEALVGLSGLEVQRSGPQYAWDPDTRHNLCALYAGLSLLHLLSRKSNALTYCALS
The description is as above.

In assay [5] the target is Hsp90β (human (endogenous in HEK293T)) (UniProt P08238). Kind of assay: co-IP; HEK293T cells transfected with Gsdma3 constructs; co-immunoprecipitation with endogenous chaperones or Tom70, in part reciprocal; in part in the absence or presence of 750 nM radicicol; in part with co-expressed C-Gsdma3.

Take “Stress-induced-phosphoprotein 1 (from UniProt P31948 1-543)”: in assay [1], the binding entry is “binds”.

With Hsp70 1A (from UniProt P0DMV8 1-641), the binding result in assay [1] and in assay [2] was “binds” in each case.

Take Hsp90β (from UniProt P08238 1-724): the binding entry in assay [1] and in assay [2] was “binds” in each case.

B1: C-terminal portion of Gsdma3 (A.A. 229-464) (domain or fragment, UniProt Q5Y4Y6 229-464)
chain: MQTFPKIRRVPCSAFISPTQMISEEPEEEKLIGEMHEDFKTLKEEVQRETQEVEKLSPVGRSSLLTSLSHLLGKKKELQDLEQKLEGALDKGQKVTLEALPKDVLLSKDAMDAILYFLGALTELTEEQLKILVKSLEKKILPVQLKLVESTLEQNFLQDKEGVFPLQPDLLSSLGEEELTLTEALVGLSGLEVQRSGPQYAWDPDTRHNLCALYAGLSLLHLLSRKSNALTYCALS
Turning to B1, the binding entry in assay [3] is given as “binds”; in assay [4], “no binding”.

B2: C-terminal portion of Gsdma3^Rim3 (A.A. 229-464, A348T) (domain or fragment, UniProt Q5Y4Y6 229-464)
chain: MQTFPKIRRVPCSAFISPTQMISEEPEEEKLIGEMHEDFKTLKEEVQRETQEVEKLSPVGRSSLLTSLSHLLGKKKELQDLEQKLEGALDKGQKVTLEALPKDVLLSKDAMDAILYFLGTLTELTEEQLKILVKSLEKKILPVQLKLVESTLEQNFLQDKEGVFPLQPDLLSSLGEEELTLTEALVGLSGLEVQRSGPQYAWDPDTRHNLCALYAGLSLLHLLSRKSNALTYCALS
Turning to B2, the binding result in assay [3] was “no binding”.

B3: TNF receptor-associated protein 1 (protein, UniProt Q12931 60-704)
chain: STQTAEDKEEPLHSIISSTESVQGSTSKHEFQAETKKLLDIVARSLYSEKEVFIRELISNASDALEKLRHKLVSDGQALPEMEIHLQTNAEKGTITIQDTGIGMTQEELVSNLGTIARSGSKAFLDALQNQAEASSKIIGQFGVGFYSAFMVADRVEVYSRSAAPGSLGYQWLSDGSGVFEIAEASGVRTGTKIIIHLKSDCKEFSSEARVRDVVTKYSNFVSFPLYLNGRRMNTLQAIWMMDPKDVREWQHEEFYRYVAQAHDKPRYTLHYKTDAPLNIRSIFYVPDMKPSMFDVSRELGSSVALYSRKVLIQTKATDILPKWLRFIRGVVDSEDIPLNLSRELLQESALIRKLRDVLQQRLIKFFIDQSKKDAEKYAKFFEDYGLFMREGIVTATEQEVKEDIAKLLRYESSALPSGQLTSLSEYASRMRAGTRNIYYLCAPNRHLAEHSPYYEAMKKKDTEVLFCFEQFDELTLLHLREFDKKKLISVETDIVVDHYKEEKFEDRSPAAECLSEKETEELMAWMRNVLGSRVTNVKVTLRLDTHPAMVTVLEMGAARHFLRMQQLAKTQEERAQLLQPTLEINPRHALIKKLNQLRASEPGLAQLLVDQIYENAMIAAGLVDDPRAMVGRLNELLVKALERH
Regarding B3, in assay [1], the binding entry is given as “binds”.

B4: Gasdermin A3, wild type, full length (protein, UniProt Q5Y4Y6 1-464)
chain: MPVFEDVTRALVRELNPRGDLTPLDSLIDFKHFRPFCLVLRKRKSTLFWGARYVRTDYTLLDLLEPGSSPSDLTDSGNFSFKNMLDVQVQGLVEVPKTVKVKGTAGLSQSSTLEVQTLSVAPSALENLKKERKLSADHSFLNEMRYHEKNLYVVMEAVEAKQEVTVEQTGNANAIFSLPSLALLGLQGSLNNNKAVTIPKGCVLAYRVRLLRVFLFNLWDIPYICNDSMQTFPKIRRVPCSAFISPTQMISEEPEEEKLIGEMHEDFKTLKEEVQRETQEVEKLSPVGRSSLLTSLSHLLGKKKELQDLEQKLEGALDKGQKVTLEALPKDVLLSKDAMDAILYFLGALTELTEEQLKILVKSLEKKILPVQLKLVESTLEQNFLQDKEGVFPLQPDLLSSLGEEELTLTEALVGLSGLEVQRSGPQYAWDPDTRHNLCALYAGLSLLHLLSRKSNALTYCALS
With B4, in assay [4], the binding entry is “binds”.

B5: Gasdermin A3 Rim3-type mutant (A348T), full length (protein, UniProt Q5Y4Y6 1-464)
chain: MPVFEDVTRALVRELNPRGDLTPLDSLIDFKHFRPFCLVLRKRKSTLFWGARYVRTDYTLLDLLEPGSSPSDLTDSGNFSFKNMLDVQVQGLVEVPKTVKVKGTAGLSQSSTLEVQTLSVAPSALENLKKERKLSADHSFLNEMRYHEKNLYVVMEAVEAKQEVTVEQTGNANAIFSLPSLALLGLQGSLNNNKAVTIPKGCVLAYRVRLLRVFLFNLWDIPYICNDSMQTFPKIRRVPCSAFISPTQMISEEPEEEKLIGEMHEDFKTLKEEVQRETQEVEKLSPVGRSSLLTSLSHLLGKKKELQDLEQKLEGALDKGQKVTLEALPKDVLLSKDAMDAILYFLGTLTELTEEQLKILVKSLEKKILPVQLKLVESTLEQNFLQDKEGVFPLQPDLLSSLGEEELTLTEALVGLSGLEVQRSGPQYAWDPDTRHNLCALYAGLSLLHLLSRKSNALTYCALS
On to B5, for which the binding result in assay [4] is recorded as “binds”.

B6: Tom70 (translocase of outer mitochondrial membrane 70) (receptor, UniProt O94826 1-608)
chain: MAASKPVEAAVVAAAVPSSGSGVGGGGTAGPGTGGLPRWQLALAVGAPLLLGAGAIYLWSRQQRRREARGRGDASGLKRNSERKTPEGRASPAPGSGHPEGPGAHLDMNSLDRAQAAKNKGNKYFKAGKYEQAIQCYTEAISLCPTEKNVDLSTFYQNRAAAFEQLQKWKEVAQDCTKAVELNPKYVKALFRRAKAHEKLDNKKECLEDVTAVCILEGFQNQQSMLLADKVLKLLGKEKAKEKYKNREPLMPSPQFIKSYFSSFTDDIISQPMLKGEKSDEDKDKEGEALEVKENSGYLKAKQYMEEENYDKIISECSKEIDAEGKYMAEALLLRATFYLLIGNANAAKPDLDKVISLKEANVKLRANALIKRGSMYMQQQQPLLSTQDFNMAADIDPQNADVYHHRGQLKILLDQVEEAVADFDECIRLRPESALAQAQKCFALYRQAYTGNNSSQIQAAMKGFEEVIKKFPRCAEGYALYAQALTDQQQFGKADEMYDKCIDLEPDNATTYVHKGLLQLQWKQDLDRGLELISKAIEIDNKCDFAYETMGTIEVQRGNMEKAIDMFNKAINLAKSEMEMAHLYSLCDAAHAQTEVAKKYGLKPPTL
For the molecule B6, the binding entry in assay [1] is given as “binds”.

B7: N-terminal portion of Gsdma3 (A.A. 1-227) (domain or fragment, UniProt Q5Y4Y6 1-227)
chain: MPVFEDVTRALVRELNPRGDLTPLDSLIDFKHFRPFCLVLRKRKSTLFWGARYVRTDYTLLDLLEPGSSPSDLTDSGNFSFKNMLDVQVQGLVEVPKTVKVKGTAGLSQSSTLEVQTLSVAPSALENLKKERKLSADHSFLNEMRYHEKNLYVVMEAVEAKQEVTVEQTGNANAIFSLPSLALLGLQGSLNNNKAVTIPKGCVLAYRVRLLRVFLFNLWDIPYICND
Take B7: the binding result in assay [3], in assay [4] and in assay [5] was “binds” in each case.

The values above are taken from PMC4477613.
